Measurements as given in the supplement of paper PMC12217912.
The list shows a part of the results. The full chains were built here from the parent and the listed change. Values near 0.05 are background.

B1: TEV protease; numbered along this chain (parent)
chain: MGESLFKGPRDYNPISSSICHLTNESDGHTTSLYGIGFGPFIITNKHLFRRNNGTLVVQSLHGVFKVKDTTTLQQHLVDGRDMIIIRMPKDFPPFPQKLKFREPQREERICLVTTNFQTKSMSSMVSDTSCTFPSGDGIFWKHWIQTKDGQCGSPLVSTRDGFIVGIHSASNFTNTNNYFTSVPKNFMELLTNQEAQQWVSGWRLNADSVLWGGHKVFMVKPEEPFQPVKEATQL

Variants of: B1
Experiment: raw area under fraction-flipped curve 0-4 h after induction (AUC4h, not background-subtracted), DNA-recorder readout of cleavage of the substrate (dimensionless); higher = more cleavage of the substrate by the protease variant
Details: temperature: 34 °C; time window: 0-4 h after rhamnose induction
Experimental: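 In vivo DNA recorder in E. coli TOP10(DE3) ΔrhaA at 34 °C. Each TEVp single-site mutant (parent TEVp 0) is paired with a single-site variant of the 7-mer TEVs (canonical ENLYFQ|S). The substrate sits between flexible linkers in a Bxb1-sfGFP-TEVs-SsrA fusion, so cleavage stabilises Bxb1 and speeds flipping of a recombination array, read by NGS. The value is the raw area under the fraction-flipped curve over 0-4 h after rhamnose induction (AUC4h), with ≥20 reads per time point. It is not background-subtracted; inactive controls average about 0.047.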
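Also: Bxb1 expression induced with 0.2% (w/v) L-rhamnose at OD600 near 0.5, cultures sampled hourly, flipped fraction per protease–substrate barcode pair counted by paired-end Illumina sequencing.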

Variant	area with substrate ENCYFQS	area with substrate ENDYFQS	area with substrate ENEYFQS	area with substrate ENFYFQS	area with substrate ENGYFQS	area with substrate ENIYFQS	area with substrate ENKYFQS	area with substrate ENPYFQS	area with substrate ENQYFQS	area with substrate ENRYFQS	area with substrate ENSYFQS	area with substrate ENTYFQS	area with substrate ENVYFQS	area with substrate ENWYFQS	area with substrate ENYYFQS	area with substrate ENAYFQS	area with substrate ENHYFQS	area with substrate ENMYFQS	area with substrate ENNYFQS
C20V	0.0673	0.0581	0.0613	0.0722	0.0644	0.1	0.0633	0.0588	0.0593	0.0629	0.0945	0.0678	0.101	0.0588	0.0553	–	–	–	–
A196Q	–	0.0631	–	0.0705	0.0634	–	–	0.0546	0.0577	0.064	0.0728	0.0554	–	–	–	0.0549	0.0604	0.0607	0.0648
A196H	0.0473	0.0663	0.0686	0.0655	0.0706	–	0.0581	0.0593	0.0557	0.0642	0.0754	0.0711	0.0764	0.05	0.0486	0.0579	0.0634	0.0843	0.0602
A196I	0.0781	0.0637	0.0711	0.0714	0.0632	0.104	–	–	0.0571	0.0464	0.0616	0.0622	0.0748	–	0.0676	0.0687	0.0607	0.0668	0.0576
E195F	0.0653	0.0643	0.0556	0.0628	–	–	–	0.0569	0.0661	0.0563	0.138	0.0749	0.0715	0.0359	–	0.0533	0.0484	0.112	–
G214A	0.0639	0.0561	0.0635	–	–	–	0.0665	0.0606	0.0447	0.0579	0.0673	0.0565	0.0743	0.0522	0.0632	0.0589	0.0086	0.059	0.0561
Q194P	0.067	0.0761	0.0656	–	0.049	–	0.0408	0.0682	0.0583	0.0453	0.0694	0.0617	0.0828	–	–	0.0533	0.0578	0.0982	0.0498
Q194E	0.0769	–	0.0551	0.0729	0.041	0.117	–	0.0464	0.0613	0.0628	0.0715	–	0.0767	–	–	0.0569	0.0614	–	0.0587
K185E	0.0645	–	0.052	0.0629	0.0544	0.157	–	0.0549	0.0532	0.054	0.0582	0.0959	0.086	–	0.0544	0.0909	0.0467	–	0.0548
K185F	0.0615	0.0586	0.0724	0.0925	–	0.112	0.0568	–	0.0561	0.0635	0.0642	0.0581	0.0828	0.0563	0.0626	0.0571	0.0476	0.062	0.0504
K185I	0.0668	0.055	–	–	0.0737	0.109	–	0.056	0.058	0.0607	0.0692	–	–	–	0.0677	0.0543	0.0559	–	–
P222Y	0.0713	0.0583	0.0471	–	–	0.108	–	–	0.0576	0.0651	0.0532	0.0819	0.0755	0.0622	0.0643	0.0592	0.114	–	–
P222Q	0.0696	0.0809	0.055	0.0581	0.0666	0.11	0.0628	0.0596	0.0569	0.0619	0.0612	0.0598	0.0748	0.0508	–	0.0609	0.0655	0.0827	–
N186E	–	0.0521	–	–	0.0681	0.117	–	0.0412	0.0587	–	0.0961	0.0653	0.0747	–	–	0.0524	–	0.082	–
N186W	–	0.0631	–	0.0475	0.0449	–	0.0483	–	–	0.063	0.0671	0.0607	–	0.0625	0.0861	0.0604	0.0415	–	0.0705
V220A	0.0566	0.0657	–	0.0519	0.0599	–	0.0598	0.0437	0.0593	0.0395	0.0684	0.0774	0.0697	0.0683	–	0.066	0.0567	0.0652	0.0606
M188Y	–	0.0662	–	0.0684	0.0532	0.109	–	–	0.0655	0.0369	0.0052	–	–	–	0.0712	0.0518	0.0457	–	0.0569
N206T	–	0.0659	0.0592	0.0608	0.0574	–	–	–	0.0581	0.0602	0.0581	0.0536	0.0687	–	–	0.0765	–	0.0796	0.0512
S201I	0.0647	0.06	0.0531	0.0675	0.0564	–	–	–	0.106	–	0.0625	0.0509	0.0887	–	–	0.0532	–	–	0.0552
R204W	0.0625	0.0712	0.0703	0.0586	–	–	0.0607	–	0.0652	–	0.0596	0.0725	0.0691	–	0.0677	0.049	0.0592	0.0925	0.0579
R204Q	0.0695	0.0562	0.0626	–	0.0525	0.105	0.0624	0.0642	0.0636	0.0589	0.0564	–	0.107	0.0773	0.0789	0.0948	0.0404	–	–
W212D	–	0.0667	0.0669	0.0154	0.0669	–	0.0607	–	0.05	–	0.0616	–	0.0531	0.0567	–	0.0602	0.0691	0.0584	–
W212F	0.0711	0.0673	0.0607	0.0598	0.0644	–	–	0.074	0.0546	0.0634	0.052	0.0559	0.0667	–	0.068	0.061	–	0.0838	–
K230T	0.0686	0.0751	0.066	0.0834	–	0.0981	0.0566	–	0.0634	0.0577	0.0816	0.0764	0.0344	0.066	0.0669	0.0875	0.0641	0.0875	0.0432
K230W	–	0.083	0.046	0.0544	0.0701	0.104	0.0664	–	0.0567	0.0491	0.0696	0.0573	0.075	0.0497	0.0458	0.0633	0.0663	–	0.0561
